Results as given in PubChem BioAssay AID1508621 (National Center for Advancing Translational Sciences (NCATS), 2021).
This list was built around the results that the source calls inconclusive (neither active nor inactive); the mix of calls is not that of the screen. Potencies beside an inconclusive call are fits to weak or partial responses and may not hold up. Active and inactive are the calls of the source. Calls follow the shape of the dose curve; as a rule, active = well fitted inhibition curve with a large enough effect; inconclusive = small, poorly fitted or top-dose-only effect; inactive = no such curve, though single readings can be large or run the other way.

Experiment: Confirmatory qHTS for Identification of Small Molecule Inhibitors of Huntingtin Promoter Activity; also: nearly all actives have a fitted effect of over 65% in size;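 as to activity change, negative = inhibition: 0% = vehicle control and -100% = zero luminescence signal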
Settings: HEK293 HTT promoter firefly luciferase reporter, 24 h; series mostly up to 57.5 µM; activity change, negative = inhibition: at the top concentration
How it was run: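 HEK293 luciferase reporter cells, 2,500/well, cultured 24 h, then exposed to compounds at up to 57.5 uM final for 24 h at 37C. Firefly luciferase luminescence read; normalized to vehicle (0%) and zero RLU (-100%).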
Potency is read from the fitted curve at half-maximal effect; tags tell the direction and shape of the fitted curve.

| Compound | Potency | activity change, negative = inhibition |
| --- | --- | --- |
| Cc1noc(/C=C/c2ccccc2F)c1S(=O)(=O)N1CCC(C(=O)Nc2ccc(C#N)cc2)CC1 | inconclusive: 21.3 µM [inhibitor, partial curve] |  |
| CCOC(=O)C1CCCN(C(=O)Cn2c(=O)cc(C)c3c(C)nn(C)c32)C1 (stereo unspecified) | inconclusive: 30.1 µM [inhibitor, single point] |  |
| O=C(Cn1c(=O)oc2cc(S(=O)(=O)N3CCCCCC3)ccc21)Nc1cccc(C(F)(F)F)c1 | inconclusive: 3.38 µM [inhibitor, partial curve] |  |
| CCc1ccc(C2CC(=O)Nc3c2c(C)nn3-c2nc(C)cc(C)n2)cc1 (stereo unspecified) | inconclusive: 26.9 µM [inhibitor, single point] |  |
| O=C(C=Cc1cccc(S(=O)(=O)Nc2ccccc2)c1)NO |  | inactive: 270% |
| COc1ccc(Cl)cc1NC(=O)CSc1nccn1-c1ccc(Cl)cc1 | inconclusive: 23.9 µM [inhibitor, single point] |  |
| CC(=O)Nc1cccc(NC(=O)CSc2nccn2Cc2ccccc2)c1 | inconclusive: 10.7 µM [inhibitor, partial curve] |  |
| COc1ccc(S(=O)(=O)Nc2cc(-c3cn4ccc(C)cc4n3)ccc2C)cc1OC |  | inactive: -0.512% |
| C#C[C@]1(O)CC[C@H]2[C@H]3CCc4cc(OC)ccc4[C@H]3CC[C@@]21C |  | inactive: -8.88% |
| CCCc1cc(N2CCN(c3cccc(C)c3C)CC2)n2cnnc2n1 | inconclusive: 21.3 µM [inhibitor, partial curve] |  |
| COc1ccccc1CNC(=O)c1ccc(N2CCCC2)c(NC(=O)NCc2ccc(C)cc2)c1 | inconclusive: 26.9 µM [inhibitor, single point] |  |
